Source: ChEMBL document CHEMBL4888484, “Replenishing the malaria drug discovery pipeline: Screening and hit evaluation of the MMV Hit Generation Library 1 (HGL1) against asexual blood stage Plasmodium falciparum ,using a nano luciferase reporter read-out” (2022)
Among all 150,000 compounds or so, about 540 (0.36%) showed an effect of 50% or more. Some of the results follow.

System: Plasmodium falciparum
Assay: Primary screen in NF54 nanoGlo assay, in single point, at 2uM, 72h; a lower Z score goes with more inhibition
Format: functional, Erythrocyte
Details: timepoint 72 hour

| Compound | % Inhibition [%] | Z score |
| --- | --- | --- |
| Nc1c2c(-c3cccc(F)c3)nc(NCCN3CCCC3)nc2nn1Cc1ccccc1 | -14 | 1.8 |
| O=C(NCCc1nc2ccccc2[nH]1)C(F)(F)c1ccc(F)cc1 | 4 | -0.36 |
| C=CCCc1ccccc1NC(=O)N1C[C@H](C)C(=O)[C@@H](C)C1 | -6 | 1.22 |
| O=C(CCc1c[nH]c2ccccc12)N1CC(Cc2nncn2C2CCCC2)C1 | 0 | 0.05 |
| CCN1CCC[C@@H]1CNc1cc(C(C)C)nc(C)n1 | 9 | -1.3 |
| COc1cccc(CN2CCN(c3nc4ccccc4o3)C[C@@H]2CCO)c1 | 2 | -0.29 |
| O=c1ccccn1CCN1CCc2ccccc21 | -14 | 1.44 |
| Cc1cc(Cl)cc2cc(C(=O)N3CC(N4CCNC4=O)C3)[nH]c12 | 19 | -2.7 |
| Cc1ccc(C(=O)NC[C@H](C)c2ccc(Br)cc2)nn1 | -2 | 0.23 |
| N#CC1(CS(=O)(=O)N2CCOc3cc(O)ccc3C2)CCCC1 | -9 | 1.31 |
| CCc1ccc(C(=O)NC(CC)[C@H]2C[C@H](O)C2)[nH]1 (stereo not given in full) | 2 | -0.29 |
| O=C(NCC1CC12CC2)C1CCC(F)(F)C1 (stereo not given) | -5 | 1.04 |
| Cc1cccc2nc(CN(C)C(=O)CCc3cn[nH]c3)[nH]c12 | -21 | 1.83 |
| COc1cccc(N2CCN(c3nn(-c4ccccc4)nc3C#N)CC2)c1 | 6 | -0.73 |
| Cc1cc(S(=O)(=O)NCCCOC(C)C)cc(C(=O)O)c1C | -2 | 0.22 |
| Cc1ccc(NC(=O)CN(c2ccccc2)c2n[nH]c(=S)s2)c(C)c1 | -46 | 5.45 |
| Cc1cc(C)cc(-n2nc(C)nc2CNC2CC2)c1 | -11 | 2.03 |
| Cc1cccc(Cl)c1OCCN[C@H]1CCC(=O)N(CC2CC2)CC1 | -14 | 1.36 |
| CCC1(C(=O)N[C@H]2CC[C@H](Nc3ccccn3)CC2)COC1 | 4 | -0.79 |
| O=c1[nH]c2ccccc2c(NCc2ccccc2)c1N1CCN(c2ccccc2)CC1 | 34 | -4.55 |
| CCC1=NO[C@@H](CNC(=O)C2Cc3ccccc3C2)C1 | -10 | 1.14 |
| COCCNC(=O)N1CCC[C@H](Oc2ccc(C)nn2)C1 | -8 | 0.93 |
| CC(CCc1ccc2c(c1)OCO2)NC(=O)N1C[C@@H](O)C[C@H]1CO (stereo not given in full) | -12 | 1.65 |
| Cn1nccc1CCC(=O)N1CC[C@@](O)(c2ccccc2)[C@H]2CCCC[C@H]21 | 0 | -0.07 |
| Cc1cc(C(=O)N(CCCO)Cc2ccc(Cl)cc2)nc(C)n1 | 6 | -1.16 |
| Cc1[nH]c(=O)[nH]c(=O)c1S(=O)(=O)N(C1CCCCC1)C1CCCCC1 | -10 | 1.86 |
| CC(C)(C)C(=O)Nc1ccccc1C(N)=O | -12 | 1.56 |
| COC(=O)N1CCc2ccc(F)cc2[C@@H]1C(=O)Nc1cc(C(F)(F)F)ccc1Cl | -8 | 1.31 |

| Compound | % Inhibition [%] | Z score |
| --- | --- | --- |
| CN1CCC(N(Cc2cccnc2)Cc2nnc(-c3ccccc3)o2)CC1 | -29 | 2.92 |
| CCCn1cnnc1CN(C)c1cc(C(C)C)nc(N)n1 | -17 | 2.46 |
| CN(C(=O)c1ccc(Cl)o1)[C@H]1CCN(c2ccccc2)C1=O | 2 | -0.36 |
| COc1ccnc(C(=O)N2CCn3nc(CO)cc3C2)c1 | -9 | 1.85 |
| CCn1nc(C(=O)N[C@H]2CCCc3ccccc32)cc1-c1ccc(C(C)(C)C)cc1 | 3 | -0.44 |
| CN(C(=O)Nc1nncs1)C1CCC(c2ccccc2)CC1 (stereo not given) | 1 | -0.19 |
| CCN(Cc1ccc(C)c2ncccc12)C[C@H]1CCCCO1 | 2 | -0.41 |
| CCn1nncc1C(=O)Nc1cnn([C@@H](C)c2ccccc2)c1 | -7 | 0.94 |
| COC(=O)c1ccc2c(c1)CCCCN2Cc1cn(C)nn1 | 9 | -1.79 |
| CC(C)c1noc(CN2CCN(CC(=O)N[C@@H](C)c3ccc(F)cc3F)CC2)n1 | -8 | 1.04 |
| COc1ccc(C2(CNC(=O)C3(N)CC4(CCC4)C3)CCCCC2)cc1OC | -12 | 1.96 |
| CC(=O)N1CC[C@H](NC(=O)N2CCN(CCC(C)(C)C)CC2)C1 | -9 | 1.11 |
| CC(C)Cc1cc(C(=O)N2CCc3[nH][nH]c(=O)c3CC2)[nH]n1 | 0 | -0.05 |
| CNC(=O)CCCC(=O)Nc1ccc(Br)cc1O | -9 | 0.88 |
| Nc1cc(-c2ccc(Br)o2)ncn1 | -8 | 0.97 |
| COc1ccc(CN2Cc3cc(NC(=O)c4cccc(OC)c4)ccc3O[C@@H](C)C2=O)cc1 | -5 | 0.96 |
| CC(=O)N1c2ccccc2C[C@H]1c1nc(C(C)(C)c2ccc(Cl)cc2)no1 | -6 | 1 |
| CCCN(CC(N)=O)c1ncc(-c2ccccc2)s1 | -10 | 0.98 |
| COc1nc(NCC2(CO)CCCC2)ncc1F | -7 | 0.69 |
| O=C(Cc1nc[nH]n1)N1CCCS(=O)(=O)C[C@H]1c1ccccc1 | -7 | 1.31 |
| O=C(c1cc2sccc2[nH]1)N(CCC(F)(F)F)Cc1ccccc1 | -2 | 0.21 |
| Cc1ccccc1Cn1cnc2c1c(=O)n(C1CCCCC1)c(=O)n2-c1ccc(F)c(F)c1 | 4 | -0.71 |
| Cc1ccnc(NCCCOC2CCCCC2)n1 | -19 | 2.1 |
| COc1cccc(C2=NS(=O)(=O)N(C)C(C(=O)N3CCN(c4ccccc4)CC3)=C2)c1 | 0 | 0.06 |
| CC(=O)Nc1ccc(S(=O)(=O)Nc2ccc3nncn3n2)cc1 | 28 | -3.13 |
| Cc1cc(C(=O)NC[C@]2(O)CCOc3ccccc32)no1 | 8 | -1.04 |
| COc1ccc2cc(CN3C[C@@H](C(=O)O)C[C@@H](C(=O)NC4CC4)C3)ccc2c1 | 3 | -0.45 |
